Here are results for 16 molecules from the supplement of paper PMC10115384.

Numbering of substitutions follows the chain as printed. Human monoclonal antibodies (heavy:light variable regions, translated from the printed DNA). IC50 against SARS-CoV-2 spike pseudoviruses, on VSV particles in 293T-ACE2 cells (24 h) or MLV particles in HeLa-ACE2 cells (72 h); lower = stronger; >1.0 µg/ml as printed. No active / inactive call per row; the paper counts an IC50 of 0.4 µg/ml or less on any variant as neutralizing. Only 98 of the paper's 459 antibodies have neutralization values; the two systems are not on one scale.

B1: ADI-67119 (protein)
chain 1: EVQLVETGGGLIQPGESLRLSCAASGLTVSTNYMTWVRQAPGKGLEWVSIIYSGGSTFYADSVRGRFTISRDNSKNTLYLQMNSLRVEDTAVYFCARDSVRGGMDVWGQGTTVTVSS
chain 2: SYELTQPLSVSVALGQTARITCGGDNVGDETVFWYHQKPGQAPVLVLYGDSNRPSGIPERFSGSKSGNTATLTITRAQAGDEADYYCQVWDTTSVIFGGGTKLTVL
B2: ADI-67127 (protein)
chain 1: EVQLVESGGGLVQPGGSLRLSCAASGFTFEDYAMHWVRQAPGKGLEWVSGISWNSGVIDYADSVKGRFIISRDNTKNSLYLHMNSLRPEDTALYYCAKDDYPSSWYEHHPQRWAFDIWGQGTMVTVSS
chain 2: QSVLTQPPSVSAAPGQKVTISCSGSSSNIGNNYVSWYQQLPGTAPKLLIYDNNKRPSGIPDRFSGSKSGTSATLGITGLQTGDEADYYCGTWDSSLSVVFGGGTKLTVL
B3: ADI-67189 (protein)
chain 1: QVQLVESGGGVVQPGRSLRLSCAASGFTFNNYGMHWVRQAPGKGLEWVALISYDGSLKHYADSVTGRFTISRDSSKSTLFLQMNSLRPEDTAVYYCARDYGDYAAFDSWGQGTLVTVSS
chain 2: DIVMTQSPDSLAVSLGERATINCKSSQSVLYSSNNKNYLTWYQQKPGQPPKLLIYWASTRESGVSDRFSGSGSGTDFTLTISSLQAEDVAVYYCQQYYSTPLTFGGGTKVEIK
B4: ADI-67218 (protein)
chain 1: QVQLQQWGAGLLKPSETLSLTCAVYSGSFSGSSWSWIRQPPGKGLEWIGEINHSGSTNYNSSLKSRVTISIDTSKNQFSLRLNSVTAADTAVYYCARWDLLYPRDAFDIWGQGTMVTVSS
chain 2: QSALTQPRSVSGSPGQSVTISCTGTSSDVGGYNYVSWYQQHPGKAPKLMTYDVSKRPSGVPDRFSGSKSGNTASLTIAGLQAEDEAEYHCCSYAGSYVVFGGGTKLTVL
B5: ADI-67130 (protein)
chain 1: QVQLVQSGAEVKKPGSSVKVSCKASGGTFSSYAISWVRQAPGQGLEWMGGIIPITGTTNFAEKFQGRVTITADESTSTAYMELSSLTSEDTAVYYCARDRGYSGYGASLYFDYWGQGTLVTVSS
chain 2: QSVLTQPPSVSGAPVQELLTISCTGSNSNIGAGYDVHWYQQLPGTAPKLLIYRNSNRPSGVPDRFSGSKSDTSASLAITGLQAEDEADYYCQSYDSGLSGVVFGGGTKLTVL
B6: ADI-67139 (protein)
chain 1: QVQLQESGPGLVKPSQTLSLTCTVSGGSISSGSYYWSWIRQHPGKGLEWIGYIHYSGNTYYNPSLKSRISISVDTSKNHFSLKLNSVTAADTAVYYCARDSDYGEYFDSWGQGTLVTVSS
chain 2: EIVLTQSPATLSLSPGERATLSCRASQSVSSYLAWYQQKAGQAPRLLIYDASNRATGIPARFSGSGSGTDFTLTISSLEPEDYAVYYCQQRYNWPPITFGQGTRLEIK
B7: ADI-67145 (protein)
chain 1: QVQLVESGGGVVQPGRSLRLSCAASGFTFTTYAMHWVRQAPGKGLEWVALISYDGDNKYYPDSVKGRFTISRDNSKNTLYLQMNSLTTEDTAVYYCARAYGGSYYGAFDIWGQGTMVTVSS
chain 2: DIVMTQSPDSLAVSLGERATINCKSSQSVLYNSNNKNYLAWYQQKPGQPPKLLIYWASTRESGVPDRFSGSGSGTDFTLTISSLQAEDVAVYYCQQYYSTPPYTFGQGTKVEIK
B8: ADI-67225 (protein)
chain 1: EVQLVESGGGLVKPGGSLRLSCAASGFTFSSYSINWVRQAPGKGLEWVSSISSRSNYIYYADSVKGRFTISRDNAKNSLYLQMHSLRAEDTAVYYCARDQDSGYDYGFSHYYYGLDVWGQGTTVTVSS
chain 2: DIQMTQSPSSVSASVGDRVTITCRASQGISSWLAWYQQKPGKAPKLLIYAASSLQSGVPSRFSGSGSGTDFTLTISRLQPEDFATYYCQQGNSFPWTFGQGTKVEIK
B9: ADI-67128 (protein)
chain 1: EVQLVESGGGLVQPGGSLRLSCAASGFTFSNYDMHWVRQGAGKGLEWVSLIGTDGDTYYPASVKGRFTISRENAKNSLYLQMNSLRAGDTAVYYCVRVNYDSSGYYHYFDYWGQGTLVTVSS
chain 2: DIQMTQSPSSLSASVGDRVTITCRASQSISNYLNWYQQKPGKAPKLLIYAASSLQSGVPSRFSGSGSGTDFTLTISSLQPEDFATYYCQQTYNIPPITFGQGTRLEIK
B10: ADI-67223 (protein)
chain 1: QVQLVESGGGVVQPGRSLRLSCAASGFTFNTYGMHWVRQAPGKGLEWVAVISYDGSHIYYADSVKGRFTISRDSSKNTLYLQMNSLRAEDTAVYYCAKDYGDYGGMDVWGQGTTVTVSS
chain 2: not shown
B11: ADI-67138 (protein)
chain 1: QLQLQESGPGLVKPSETLSLTCTVSGDSITSRNYYWGWVRQPPGKGLEWIGSIFYNVNTYYNPSLMSRITMSVDTSKNQFSLKLTSLTAADTAVYYCAVGGVRSLEWLLQFDYWGQGTLVTVSS
chain 2: QSALTQPPSASGSPGQSVTISCTGTSSDVGYSNYVSWYQQHPGKAPKLMIFEVSERPSGVPDRFSGSKSGNTASLTVSGLQAEDEADYYCSSYAGSSSLVFGTGTKVTVL
B12: ADI-67183 (protein)
chain 1: QLQLQESGPGLMKPSETLSLTCNVSGGSISSSDYYWGWIRQPPGKGLEWIGSYYYVGSTYYNPSLKSRVTISVDTSKSQFSLKLTSVTAADTAVYYCAVGGVRFFEWLLQFDYWGQGTLVTVSS
chain 2: B11 chain 2 with Y31A, F51Y, V53L, S54T, E55K, E83A, D87H, V100I, T103G, V107L
B13: ADI-67137 (protein)
chain 1: EVQLVQSGAEVKKPGESLKISCKGSGYNFANYWIGWVRQMPGKGLEWMGIIYPSHSDIRYSPSFQGQVTISADKSISTAYLQWSSLKASDTAMYYCTRQIGHYGSGSEDYWGQGTLVTVSS
chain 2: QSALTQPASVSGSPGQSITISCTGTSSDVGGYNHVSWYQQHPGKAPKLMIYDVSNRPSGVSNRFSGSKSGNTASLTISGLQAEDEADYYCSSYTSRNTLGEVFGTGTKVTVL
B14: ADI-67994 (protein)
chain 1: EVQLVESGGGLVQPGGSLRLSCAASGFTFRNYAMNWVRQAPGKGLEWVSVLSGGDGSTYYADSVKGRFTISRDNSKNTLYLQMNSLRAEDTAVYYCARDLGGYSYGLNFFYAMDVWGQGTTVTVSS
chain 2: QSALTQPASVSGSPGQSITISCTGTSSDVGAFNYVSWYQQHPGKAPKLMIYDVNNRPSGVSNRFSGSKSGNAASLTISGLQAEDEADYYCSSYTSSSTFVLFGGGTKLTVL
B15: ADI-67140 (protein)
chain 1: EVQLVETGGGLIQPGGSLRLSCAASGVIISNNYMSWVRQAPGKGLEWVSVIYSGGSTFYADSVKGRFTISRDNSKNTLYLQMNNLRAEDTAVYFCAREAYAFDIWGQGTMVTVSS
chain 2: DIQLTQSPSFLSASVGDRVTITCRASQGISSYLAWYQQKPGKAPKLLIYGASTLQRGVPSRFSGSGSGTEFTLTITSLQPEDFATYYCQQLNSHPPAFGGGTKVEIK
B16: ADI-67999 (protein)
chain 1: QVQLVQSGAEVKKPGSSVKVPCKASGGTFSNYGISWVRQSPGQGPEWLGGILPILGTVNYAQKFQGRVTITADESRTTAYMELSSLRSEDTAVYYCARERGYSGYGASLYFDYWGQGTLVTVSS
chain 2: QSVLTQPPSVSGAPGQRVTISCTGSNSNIGAGYDVHWYQRLPGTAPKLLIYGNNNRPSGVPDRFSGSKSDTSASLAITGLQAEDEADYYCQSYDSSLSGAVFGTGTKVTVL

For the first assay, the target named is SARS-CoV-2 Beta spike pseudovirus. As to the kind of experiment: pseudovirus neutralization IC50; higher = weaker neutralization. To be noted: system: VSV particle, 293T-ACE2 cells. On the procedure: (§1)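 Single-round reporter pseudovirus mixed with dilutions of yeast-made human IgG and put on ACE2-bearing cells; IC50 from the dose curve.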
On to B1, for which the “pseudovirus neutralization IC50” value turned out to be 0.635 µg/mL.
B2: the “pseudovirus neutralization IC50” value was above 1 µg/mL.
For the molecule B3, the “pseudovirus neutralization IC50” value was above 1 µg/mL.
B4: the “pseudovirus neutralization IC50” value is above 1 µg/mL.
On the same count and under the same terms, then B5, with above 1 µg/mL; and B6, with above 1 µg/mL; and B7, with above 1 µg/mL.
Consider B8, for which the “pseudovirus neutralization IC50” value is above 1 µg/mL.
On the same count and under the same terms, then B9, with above 1 µg/mL.
Same read-out and setting: the value for B10 was above 1 µg/mL; that for B11 was 0.001 µg/mL; that for B12 was 0.0027 µg/mL.
With B13, the “pseudovirus neutralization IC50” value is above 1 µg/mL.
As for B14, the “pseudovirus neutralization IC50” value worked out at 0.338 µg/mL.
For B15, the “pseudovirus neutralization IC50” value is above 1 µg/mL.
Same read-out and setting: the value for B16 was 0.641 µg/mL.

The target of another assay is SARS-CoV-2 Delta spike pseudovirus. The description is as above. The conditions noted are these: system: VSV particle, 293T-ACE2 cells. On the procedure: as §1
For B1, the “pseudovirus neutralization IC50” value came out at 0.0808 µg/mL.
Still for that read-out and setting: the value for B2 was above 1 µg/mL; that for B3 was above 1 µg/mL; that for B4 was 0.057 µg/mL.
As to B5, the “pseudovirus neutralization IC50” value is above 1 µg/mL.
On the same count and under the same terms, then B6, with above 1 µg/mL; and B8, with above 1 µg/mL; and B9, with above 1 µg/mL.
Regarding B11, the “pseudovirus neutralization IC50” value is 0.003 µg/mL.
For B12, the “pseudovirus neutralization IC50” value was determined as 0.0008 µg/mL.
Turning to B13, the “pseudovirus neutralization IC50” value is above 1 µg/mL.
Turning to B14, the “pseudovirus neutralization IC50” value stood at 0.227 µg/mL.
Still for that read-out and setting: then B15, with 0.015 µg/mL; and B16, with above 1 µg/mL.

For another assay, the target named is SARS-CoV-2 index (Wuhan-Hu-1) spike pseudovirus. The description is as above. To be noted: system: MLV particle, HeLa-ACE2 cells. On the procedure: as §1
With B1, the “pseudovirus neutralization IC50” value was 0.00979 µg/mL.
Same read-out and setting: the value for B2 was 0.183 µg/mL; that for B11 was 0.00451 µg/mL.
Same read-out and setting: the value for B12 was 0.00722 µg/mL.
Turning to B14, the “pseudovirus neutralization IC50” value worked out at 0.0625 µg/mL.
On the same count and under the same terms, the value for B16 was 0.201 µg/mL.

Still in this assay, the particulars now being: system: VSV particle, 293T-ACE2 cells.
Consider B1, for which the “pseudovirus neutralization IC50” value turned out to be 0.065 µg/mL.
Same read-out and setting: then B2, with 0.0541 µg/mL; and B3, with 0.278 µg/mL.
Turning to B4, the “pseudovirus neutralization IC50” value worked out at 0.0657 µg/mL.
Take B5: the “pseudovirus neutralization IC50” value was above 1 µg/mL.
As to B6, the “pseudovirus neutralization IC50” value is 0.212 µg/mL.
Regarding B7, the “pseudovirus neutralization IC50” value is above 1 µg/mL.
On the same count and under the same terms, then B8, with above 1 µg/mL; and B9, with above 1 µg/mL; and B10, with above 1 µg/mL.
Same read-out and setting: then B11, with 0.0065 µg/mL; and B12, with 0.0029 µg/mL.
For B14, the “pseudovirus neutralization IC50” value came to 0.197 µg/mL.
The same measure, in the same setting: the value for B15 was 0.012 µg/mL.
Same read-out and setting: then B16, with 0.502 µg/mL.

For the next assay, the target named is SARS-CoV-2 Omicron BA.1 spike pseudovirus. The assay is described as above. To be noted: system: MLV particle, HeLa-ACE2 cells. On the procedure: as §1
B11: the “pseudovirus neutralization IC50” value came out at 0.00228 µg/mL.
Still for that read-out and setting: then B12, with 0.00303 µg/mL; and B14, with 0.308 µg/mL; and B16, with 0.138 µg/mL.
